About 1,700 (3.3%) of roughly 52,000 compounds were called active. No stated cut-off is given here; in the data, active means survival mostly below about 52% (no sharp cut-off); inactive means mostly above about 56%. The list shows a part of the results.

Drawing on PubChem BioAssay AID463173 (ICCB-Longwood Screening Facility, Harvard Medical School, 2010), this text covers survival for 90 compounds.

The subject of this assay is Wild type. The assay is described as follows: growth inhibition of S. aureus wild type versus tarO mutant, primary screen, teichoic acid synthesis inhibitors, RN4220, OD600 (AID 463173). The settings on record: S. aureus RN4220 wild type/DeltatarO growth, OD600, 18 h, stronger effect = lower value, screened at 18.75 µg/mL (by protocol).
For the compound `Cc1cccc(NC(=O)CSc2ccc(-c3sc(-c4ccccc4)nc3C)nn2)c1C`, the survival is inactive: 62%.

`CC(=O)Nc1cccc(NC(=O)CSc2nccn2Cc2ccc3c(c2)OCO3)c1`: the survival is inactive: 82%.

On to `COC(=O)C1=NNC2C(=O)N(c3ccccc3C(F)(F)F)C(=O)C12` (stereo not given), for which the survival is inactive: 101%.

Consider `Cc1cc(C(=O)Nc2c(C)cccc2C)n(-c2ccccc2)n1`, for which the survival was inactive: 86%.

For the compound `Cc1nn(Cc2ccccc2)c(C)c1CC(=O)O`, the survival was inactive: 109%.

As for `COCCCNC(=O)c1ccc(Cn2c(SCc3ccc(F)cc3)nc3cccnc32)cc1`, the survival was inactive: 22%.

For `O=C(OCc1cc(=O)n2nc(-c3cccs3)sc2n1)c1cccc(F)c1`, the survival is inactive: 98%.

Take `CC(C)CCN(C(=O)Nc1ccc(Cl)c(Cl)c1)C1CCN(C(C)C)CC1`: the survival was inactive: 59%.

As for `CC(C)c1nn2c(=O)cc(COC(=O)C3CCCCC3)nc2s1`, the survival is inactive: 70%.

Consider `Cc1ccc(S(=O)(=O)c2nnn3c2nc(NC2CCCCCC2)c2sccc23)cc1C`, for which the survival is inactive: 48%.

With `CCCOc1cccc(C2c3c(oc4ccc(F)cc4c3=O)C(=O)N2CCCN2CCOCC2)c1` (stereo not given), the survival is inactive: 88%.

Turning to `Cc1ccc(CN(Cc2ccco2)C(=O)c2ccccc2Br)o1`, the survival is inactive: 84%.

As for `CCOc1cc(/C=C2\SC(=NC)N(C)C2=O)c(Br)cc1OC(C)=O`, the survival is inactive: 84%.

Regarding `CCCOc1ccc(-c2nonc2NC(=O)c2ccco2)cc1OCCC`, the survival is inactive: 117%.

Turning to `CC1CCN(C(=O)c2cc3c(=O)n(C)c4cc(Cl)ccc4c3s2)CC1`, the survival was inactive: 129%.

With `Cc1nc(-c2ccc(S(=O)(=O)N3CCN(c4cccc(C(F)(F)F)c4)CC3)cc2)co1`, the survival is inactive: 73%.

In the case of `Nc1cc(N)nc(SCC(=O)N2CCc3ccccc32)n1`, the survival is inactive: 109%.

Consider `Cc1cc(Br)cc(C)c1NC(=O)c1sc2ncn(Cc3cccc(F)c3)c(=O)c2c1C`, for which the survival was inactive: 90%.

In the case of `CCNC(=O)c1ccc(C)c(-n2c(C)nc3cccnc32)c1`, the survival is inactive: 72%.

Regarding `Cc1ccc(NC(=O)Cn2c(=O)c3ccc(Cl)cc3n3nncc23)cc1`, the survival is inactive: 62%.

On to `CCOc1ccc(-c2nnn(CCC#N)n2)cc1OC`, for which the survival was inactive: 99%.

On to `CCCNC(=O)c1ccc(N2C(=O)c3ccccc3C2=O)cc1`, for which the survival was inactive: 99%.

On to `O=C(Cn1c(-c2cccs2)cc2ccccc21)N1CCN(c2ccc(Cl)cc2)CC1`, for which the survival is inactive: 74%.

In the case of `COc1cccc(-c2csc(-c3c(N)c(C(=O)c4ccc5c(c4)OCO5)n4ccccc34)n2)c1`, the survival was inactive: 95%.

Consider `CCOc1ccc(C2C(C(=O)Nc3ccccc3)=C(C)Nc3nc(-c4ccccc4)nn32)cc1OC` (stereo not given), for which the survival is inactive: 111%.

Turning to `COc1ccc(-c2cn3c(n2)sc2cc(C(=O)NCCC4=CCCCC4)ccc23)cc1`, the survival is inactive: 80%.

On to `O=c1c2cnn(-c3ccc(F)cc3)c2ncn1Cc1ccccc1Cl`, for which the survival is inactive: 76%.

For the compound `Cc1cc(C)n(CCc2nc3c4ccccc4nc(SCc4ccc(F)cc4)n3n2)n1`, the survival is inactive: 85%.

In the case of `Cc1ccc(CNC(=O)c2c[nH]c3ccc(S(=O)(=O)N4CCOCC4)cc3c2=O)cc1`, the survival is inactive: 82%.

With `COc1ccc(OC)c(NC(=O)C(C)n2c(=O)cc(C)c3c(C)nn(-c4ccccc4)c32)c1` (stereo not given), the survival is inactive: 70%.

Consider `Cc1ccc(Cc2cnc(NC(=O)c3ccc4c(c3)CC(c3ccccc3)OC4=O)s2)cc1` (stereo not given), for which the survival is inactive: 114%.

As for `O=C(NC1CC(=O)N(c2ccc(F)cc2)C1)C1CCCC1` (stereo not given), the survival was inactive: 71%.

As for `Cc1c(C(=O)Nc2ccc(F)cc2F)oc2c1-c1nn(Cc3c(F)cccc3Cl)cc1CC2`, the survival is inactive: 86%.

`CCc1ccc(N2CC(c3nnc(NC(=O)c4ccco4)s3)CC2=O)cc1` (stereo not given): the survival was inactive: 78%.

Regarding `N#Cc1ccccc1NC(=O)CSc1nc(-c2ccccc2)cc(C(F)(F)F)c1C#N`, the survival is inactive: 93%.

Regarding `Nn1c(-c2ccccc2)cn2c(cc3sccc32)c1=S`, the survival was inactive: 110%.

As to `CC(=O)c1ccc(S(=O)(=O)Nc2ccc(-c3cn4c(C)csc4n3)cc2)cc1`, the survival is active: -6%.

On to `CCOC(=O)c1c(NC(=O)c2ccc(C)cc2)sc2c1CCCCC2`, for which the survival is active: -1%.

As to `COc1ccc(C)cc1NC(c1nnc(-c2ccccc2)o1)c1ccc(F)cc1Cl` (stereo not given), the survival was active: 3%.

Regarding `COc1cc(Cl)c(C)cc1NC(=O)c1cc(S(=O)(=O)N2CCCC2)ccc1F`, the survival is inactive: 32%.

As to `COC(=O)c1ccc(S(N)(=O)=O)o1`, the survival is inactive: 109%.

As for `Cc1cc(NC(=O)c2ccccc2F)ccc1-c1nc2ccccc2s1`, the survival was inactive: 88%.

With `Cc1ccc(-n2cnc3cc(C(=O)NCCC4=CCCCC4)ccc32)c(C)c1`, the survival was inactive: 88%.

On to `CC1(C)Cc2c(c(N3CCNCC3)[nH]c(=S)c2C#N)CO1`, for which the survival was inactive: 106%.

Regarding `O=C(c1ccc2c(c1)C(=O)N(CCCO)C2=O)c1ccc2c(c1)C(=O)N(CCCO)C2=O`, the survival is inactive: 100%.

`CCOC(=O)c1c(NC(=O)/C(C#N)=C/c2ccc(OC)cc2)sc2c1CCC2`: the survival was inactive: 74%.

Turning to `CCOC(=O)Cc1ccc(NC(=O)N(Cc2ccc(OC)cc2)C2CCN(C(C)=O)CC2)cc1`, the survival was inactive: 72%.

As to `Nc1cc(N)nc(SCc2ccc(Cl)cc2)n1`, the survival was inactive: 109%.

For the compound `COc1ccc(NC(=O)c2ccc3oc(=O)c(S(=O)(=O)c4ccc(F)cc4)cc3c2)cc1OC`, the survival is inactive: 71%.

On to `Cc1cccc(C)c1OCC(=O)N(Cc1ccccc1F)C1CCS(=O)(=O)C1` (stereo not given), for which the survival was inactive: 91%.

Consider `CCc1ccc(NC(=O)c2sc(-n3nc(C)c(CCC(C)C)c3C)nc2C)cc1`, for which the survival is inactive: 127%.

Regarding `COc1ccc(C(=O)N2CC(=O)Nc3ccc(Br)cc3C2c2ccc(F)cc2)cc1OC` (stereo not given), the survival was inactive: 79%.

Take `CCn1cc2nc(SCC(=O)Nc3cc(OC)ccc3OC)n(Cc3ccc(Cl)cc3)c(=O)c2n1`: the survival was inactive: 61%.

For the compound `Cc1ccc(-n2c(SCC(=O)N3CCc4ccccc43)nc3c([nH]c4ccccc43)c2=O)cc1`, the survival was inactive: 120%.

With `Cc1cc(N2CCN(C3=NCC(C)(C)S3)CC2)n2c(nc3ccccc32)c1C#N`, the survival was inactive: 110%.

On to `CCOc1ccc2nc(NCCNC(=O)C(C)(C)C)c(C)cc2c1`, for which the survival is inactive: 113%.

Consider `COc1cc(C2c3c(-c4cc(C)ccc4O)n[nH]c3C(=O)N2Cc2cccnc2)cc(OC)c1OC` (stereo not given), for which the survival is inactive: 95%.

For `CCOc1ccccc1NC(=O)c1ccc2c(c1)CCN2S(C)(=O)=O`, the survival was inactive: 89%.

`CCS(=O)(=O)N1CCc2cc(C(=O)Nc3cc([N+](=O)[O-])ccc3C)ccc21`: the survival is inactive: 79%.

In the case of `CCOC(=O)c1c(CN(C)C)oc2ccc(O)cc12`, the survival was inactive: 109%.

Take `O=C(Nc1ccc(OC(F)(F)F)cc1)c1cc2c(=O)n3ccccc3nc2s1`: the survival was inactive: 86%.

With `O=C(O)/C=C/c1ccc(-c2ccccc2)o1`, the survival was inactive: 99%.

Turning to `COc1ccc(C(=O)Nc2ccc3nc(SCC(=O)N4CCCC4)sc3c2)cc1`, the survival was inactive: 95%.

As to `COc1ccccc1CCNC(=O)Cn1ccc2cc(S(=O)(=O)N3CCCCC3)ccc21`, the survival was inactive: 87%.

Regarding `CCCC(=O)Nc1nnc(SCc2cc(=O)n3ccccc3n2)s1`, the survival was inactive: 112%.

For `O=C(CCn1c(=O)c2cccn2c2cccnc21)N1CCN(c2ccc(F)cc2)CC1`, the survival was inactive: 102%.

As to `Cn1c(=O)c(=O)n(C)c2cc(S(=O)(=O)N3CCCC3C(=O)Nc3cccc(F)c3)ccc21` (stereo not given), the survival is inactive: 71%.

On to `O=C(NC1CCCCC1)c1ccc2c(c1)N(Cc1ccccc1F)C(=O)c1ccccc1S2`, for which the survival was inactive: 85%.

`CCCCn1c(CN2CCN(c3ccc(OC)cc3)CC2)nc2c1c(=O)[nH]c(=O)n2C`: the survival was inactive: 80%.

Consider `Cc1cccc(NC(=O)CSc2nnc(CNC(=O)c3cccc(C)c3)n2-c2ccccc2)c1`, for which the survival is inactive: 72%.

As to `Cc1ccn2c(Nc3ccccc3C)c(-c3ccncc3)nc2c1`, the survival is inactive: 80%.

Regarding `CCN(CCN(C)C)C(=O)Cn1ncc2c([nH]c3ccc(C)cc32)c1=O`, the survival was inactive: 92%.

In the case of `Cc1ccc(CNC(=O)C2CCN(Cc3nc(-c4ccccc4C)oc3C)CC2)cc1`, the survival is inactive: 88%.

For the compound `COc1ccc(-c2noc(CN(C(=O)c3ccccc3Cl)C(C)C)n2)cc1`, the survival was inactive: 97%.

Regarding `Cc1ccccc1Cn1c(-c2cccs2)nc2ccccc21`, the survival was active: 26%.

Regarding `Cc1ccc2nc(CSc3nnc(NC(=O)CC(C)C)s3)cc(=O)n2c1`, the survival was inactive: 60%.

As to `Cc1cc(-c2ccccc2)nc2cc(C(=O)N3CCCCCC3)nn12`, the survival was inactive: 121%.

As for `O=C(CSc1nc2ccccc2o1)N=Nc1c(O)[nH]c2ccccc12`, the survival is inactive: 99%.

In the case of `CCOc1ccc(CNC(=O)CCC(=O)N2Cc3ccccc3Oc3ncccc32)cc1`, the survival was active: 0%.

For the compound `Cc1ccc(Cn2c(CN3CCC(C(=O)NCc4cccnc4)CC3)cc3ccccc32)cc1`, the survival was inactive: 75%.

Take `O=C1CCCC(O)=C1C=Nc1ccc2c(c1)oc1ccccc12`: the survival was inactive: 113%.

In the case of `CC(=O)c1cccc(NC(=O)CCS(=O)(=O)c2ccc3c(c2)n(C)c(=O)c(=O)n3C)c1`, the survival was inactive: 89%.

Regarding `COc1ccc(OC)c(NC(=O)CSc2c3c(nc4cc(Cl)ccc24)CCCC3)c1`, the survival is inactive: 80%.

For `NC(=O)CSc1nc2cc3c(cc2c(=O)n1CCCCCC(=O)NCc1ccc2c(c1)OCO2)OCO3`, the survival is inactive: 55%.

With `COc1ccc(OC)c(NC(=O)C2CCCN(S(=O)(=O)c3ccc4[nH]c(=O)ccc4c3)C2)c1` (stereo not given), the survival was inactive: 91%.

Turning to `O=C(Nc1ccccc1C(F)(F)F)C1(S(=O)(=O)c2ccc(Cl)cc2)CC1`, the survival was inactive: 94%.

Take `CN1CC(=O)N(CC(=O)Nc2cccc(C#N)c2)c2ccccc2C1=O`: the survival is inactive: 71%.

Consider `Cc1c(Cl)cccc1NC(=O)Nc1nnc(N(C)C2CCCCC2)s1`, for which the survival is inactive: 111%.

As to `Cc1ccc(CCNC(=O)c2cnc3c(C)cccn3c2=O)cc1`, the survival is inactive: 88%.

Consider `COc1ccc(-c2cn3c(n2)sc2cc(C(=O)NCC(C)c4ccccc4)ccc23)cc1` (stereo not given), for which the survival was inactive: 78%.
